In all, about 350,000 compounds went through this assay and about 9,900 (2.8%) were called active. The shares of active, inactive and inconclusive entries below differ from those in the screen. The call rests on the fitted dose curve; in most records, active means well fitted activation curve with a large enough effect; inconclusive means small, poorly fitted or top-dose-only effect; inactive means no such curve, though single readings can be large or run the other way. No potency is given beside an inconclusive call; the fits are too rough.
assay: A quantitative high throughput screen for small molecules that induce DNA re-replication in MCF 10a normal breast cells.; further: nearly all actives have a fitted effect of over 50% in size; on activity, positive = re-replication: % of control where 0% means no effect; settings: MCF 10A DNA re-replication, Hoechst nuclear intensity, 48 h; activity, positive = re-replication: at 46.1 µM (top of the series)
Potency means the concentration at half of the fitted maximal effect; tags describe the fitted curve by direction and shape.

| SMILES | activity, positive = re-replication | Potency |
| --- | --- | --- |
| O=C(CSCc1ccccc1)N1CCN(Cc2ccc3c(c2)OCO3)CC1 | inactive: 4.36% | – |
| CCCn1c(C)cc(C(=O)CSc2nc3nc(C)cc(C)n3n2)c1C | inactive: 8.44% | – |
| CC(=O)N1CC(C)Sc2ccc(S(=O)(=O)NCCc3ccc(C)cc3)cc21 (centres undefined) | – | inconclusive [activator, partial curve, poor fit] |
| O=c1ccc(-c2ccc(S(=O)(=O)Nc3ccc(F)cc3)o2)n[nH]1 | – | inconclusive [activator, partial curve, poor fit] |
| N#CC(=C1CCCC1)c1nc(-c2ccccc2O)cs1 | – | inconclusive [activator, single point] |
| CC(Sc1nnc(-c2ccc(Cl)cc2Cl)n1Cc1ccccc1)C(=O)Nc1nccs1 (centres undefined) | – | inconclusive [activator, single point] |
| O=C(N/N=C/c1ccc([N+](=O)[O-])o1)c1ccc(NS(=O)(=O)c2cccs2)cc1 | – | active: 18.4 µM |
| COc1ccc(-c2[nH]c(-c3ccc(C)cc3)nc2SCC(=O)NC2CCCC2)cc1 | – | inconclusive [activator, single point] |
| COc1ccc(CNC(=O)C2CCN(c3nc(-c4ccccc4)nc4c3CCC4)CC2)cc1 | – | inconclusive [activator, single point] |
| [O-][N+](=C(c1ccccc1)c1ccccc1)c1ccccc1 | – | inconclusive [activator, partial curve] |
| Cc1ccc(C)c(S(=O)(=O)NCc2cccnc2)c1 | – | inconclusive [activator, single point] |
| CCO/C(C)=N/n1c2nc3ccccc3nc2c2c(=O)n(C3CCCC3)c(C)nc21 | inactive: -0.731% | – |
| Cc1ccc2[nH]cc(CCNC(=O)CN3C(=O)c4ccccc4C3=O)c2c1 | inactive: -4.15% | – |
| Cc1cc(C)cc(NC(=O)/C=C/c2ccc([N+](=O)[O-])s2)c1 | – | active: 4.11 µM |
| COCCN(C(=O)CSc1nnc(Nc2ccc(C)cc2)s1)c1c(N)n(CC(C)C)c(=O)[nH]c1=O | – | inconclusive [activator, partial curve, poor fit] |
| Cc1cc(C)cc(NC(=S)N(Cc2ccc(Br)cc2)Cc2ccc(C(=O)O)cc2)c1 | – | inconclusive [activator, single point] |
| Cc1cccc(C(=O)N(CCc2ccccc2)Cc2ccccc2)c1[N+](=O)[O-] | – | inconclusive [activator, partial curve] |
| CCn1cc(C(=O)N[C@@H](CCSC)C(=O)NCCN2CCOCC2)c(=O)c2cc3c(cc21)OCO3 | inactive: -3.84% | – |
| CNC(=O)c1ncnnc1N(C)C(=O)NCc1ccccc1 | – | inconclusive [activator, partial curve, poor fit] |
| COc1cccc(CNC(=O)CCC2CCCN(C(=O)CCn3cncn3)C2)c1 (centres undefined) | inactive: -4.56% | – |
| COc1cccc(Cn2c(-c3nonc3N)nc3ccccc32)c1 | – | active: 2.59 µM |
| O=C(C1CCN(C2CCN(C/C(Cl)=C/c3ccccc3)CC2)CC1)N1CCOCC1 | – | inconclusive [activator, partial curve, poor fit] |
| O=C(C1CCCN(Cc2ccccc2C(F)(F)F)C1)N1CCCCC1 (centres undefined) | inactive: -4.04% | – |

| SMILES | activity, positive = re-replication | Potency |
| --- | --- | --- |
| Cc1ccc2[nH]c(=O)c(CN(CCCO)S(=O)(=O)c3c(C)ccc4nsnc34)cc2c1 | – | inconclusive [activator, single point] |
| CCN(CC)c1ccc(-c2nn3c(-c4ccccc4OC)nnc3s2)cc1 | inconclusive: 169% [activator] | – |
| COc1ccc(N=C2NC(=O)/C(=C/c3ccc(O)c(OC)c3)S2)cc1 | – | inconclusive [activator, single point] |
| CCC(=O)Nc1cc(NC(=O)CSc2ncc(-c3ccc(F)cc3)n2Cc2ccco2)ccc1C | – | inconclusive [activator, partial curve, poor fit] |
| CN(C)CCCNc1nc(-c2ccc(Cl)cc2)nc2ccccc12 | inactive: -1.54% | – |
| COc1ccccc1C(=O)NCc1ccc(-c2nc3ccccc3s2)cc1 | inactive: 1.54% | – |
| CC1CCCCN1S(=O)(=O)c1ccc(C(=O)Nc2ccccc2-c2nc3ccccc3s2)cc1 (centres undefined) | – | inconclusive [activator, partial curve, poor fit] |
| N#Cc1ccccc1CN1C(=O)NC(Cc2c[nH]c3ccccc23)C1=O (centres undefined) | inactive: -8.67% | – |
| O=C(Nc1cccc([N+](=O)[O-])c1)c1ccc2ccccc2c1O | – | inconclusive [activator, partial curve, poor fit] |
| N#CC(=C(c1ccccc1)c1ccccc1)c1ccccc1 | inactive: 0.299% | – |
| CC(C)CN=Cc1c(O)c([N+](=O)[O-])cc2oc3c(c12)CCCC3 | – | inconclusive [activator, partial curve] |
| O=C(Nc1ccccc1)Nc1ccc(Br)c(Cl)c1 | – | inconclusive [activator, partial curve, poor fit] |
| COc1ccc(NC(=O)Nc2cccc3c2O[C@H](CN(C)Cc2ccc(-c4ccccc4)cc2)[C@@H](C)CN([C@H](C)CO)C3=O)cc1 | inactive: -4.84% | – |
| Cc1onc(-c2c(Cl)cccc2Cl)c1-c1nnc(-c2ccc(Cl)cc2)o1 | – | inconclusive [activator, partial curve, poor fit] |
| FC(F)(F)c1ccccc1/C=N/n1c(COc2ccccc2)n[nH]c1=S | inactive: 25.5% | – |
| CCOc1ccc(OCCOC(=O)CN2C(=O)NC3(CCCC3)C2=O)cc1 | inactive: -1.68% | – |
| CC(=O)Nc1ccc(-c2csc(Nc3ccc(Cl)cn3)n2)cc1 | – | inconclusive [activator, single point] |
| COc1ccc(C2CC(c3ccc4ccccc4c3)=NN2C(=O)CNC2CCCCC2)cc1 (centres undefined) | – | inconclusive [activator, single point] |
| Cc1ccc(-c2noc(CSc3ccccc3)n2)cc1 | – | inconclusive [activator, partial curve, poor fit] |
| CCC(C)c1ccccc1NC(=S)NC(=O)c1ccco1 (centres undefined) | inconclusive: -23.6% [activator] | – |
| O=C(CSc1nc(CCC2CCCC2)nc2ccccc12)NCc1ccc2c(c1)OCO2 | – | active: 10.3 µM |
| N#C/C(=C\c1ccc([N+](=O)[O-])cc1)C(=O)Nc1ccccc1O | inactive: 8.54% | – |
| C=CCNC(=S)NNC(=O)c1cccc2ccccc12 | inactive: 9.44% | – |

| SMILES | activity, positive = re-replication | Potency |
| --- | --- | --- |
| O=c1c(C=Nc2ccc(Oc3ccccc3)cc2)c[nH]n1-c1cccc(Cl)n1 | – | inconclusive [activator, single point] |
| COc1cc2c(-c3cc(F)cc(F)c3)c(-c3ccsc3)oc(=O)c2cc1OC | inactive: 1.51% | – |
| O=C(Nc1cc(C(F)(F)F)cc(C(F)(F)F)c1)Nc1cnn(-c2ccc([N+](=O)[O-])cc2)c1C(F)(F)F | – | inconclusive [activator, full curve, poor fit] |
| O=C(NCCNCc1ccccc1)c1ccco1 | inactive: 1.53% | – |
| COc1cc(C(=O)N(Cc2ccc(C)o2)C2CCS(=O)(=O)C2)cc(OC)c1OC (centres undefined) | inactive: -0.263% | – |
| CCCNC(=O)c1ccc2c(c1)C1C3CCC(C3)C1C(c1ccccc1)N2 (centres undefined) | – | inconclusive [activator, full curve, poor fit] |
| CN(C)S(=O)(=O)Oc1cc(Cl)ccc1C(=O)Nc1ccc(F)cc1F | – | inconclusive [activator, full curve, poor fit] |
| Cc1cc(C(=O)CN2CCC(C)CC2)c(C)n1-c1ccc(F)cc1 | – | inconclusive [activator, partial curve, poor fit] |
| Cn1c(=O)[nH]c(=O)c2[nH]c(N(Cc3ccccc3)Cc3ccccc3)nc21 | – | inconclusive [activator, partial curve, poor fit] |
| O=S(=O)(Nc1nc(SCc2ccc(Cl)cc2)n[nH]1)c1ccccc1 | inactive: -4.67% | – |
| CSc1nc2ccc(Cl)cc2[nH]1 | inactive: 11.4% | – |
| CCN(CC)c1ccc(NC(=O)c2ccccc2F)cc1S(=O)(=O)Nc1ccccc1OC | inactive: 1.96% | – |
| Cc1cccc2nc(-c3ccccc3)nc(N3CCC(O)(c4ccc(Cl)cc4)CC3)c12 | – | inconclusive [activator, full curve, poor fit] |
| CCc1ccc(OCC(=O)NNCC(=O)Nc2ccc(OC)cc2)cc1 | inactive: -5.82% | – |
| COc1ccc2nc(SCC(=O)Nc3ccc4c(c3)CCC4)[nH]c2c1 | – | inconclusive [activator, full curve, poor fit] |
| Oc1ccccc1CN1CCCN(Cc2ccccc2O)C1 | – | inconclusive [activator, single point] |
| CC(C)c1nc2oc3c(NCc4cccnc4)ncnc3c2c2c1CCC2 | – | inconclusive [activator, single point] |
| CN(C)S(=O)(=O)c1cccc(NC(=S)NC(=O)C2CCCCC2)c1 | – | inconclusive [activator, partial curve] |
| COC(=O)c1c(C(=O)OC)c(-c2cccc(C)c2)n2c1CS(=O)C2 (centres undefined) | – | inconclusive [activator, single point] |
| c1cc2c3c(cccc3c1)NC1(CCC3(CC1)Nc1cccc4cccc(c14)N3)N2 | – | inconclusive [activator, single point] |
| Cc1nc(-c2ccc(C(F)(F)F)cc2)sc1C(=O)NN | – | inconclusive [activator, partial curve, poor fit] |
| NS(=O)(=O)c1ccc(NC(=O)COC(=O)c2cccc(S(=O)(=O)N3CCCC3)c2)cc1 | inactive: -15% | – |
| COc1ccc(C(CCN2CCOCC2)c2c(O)cc(OC)cc2OC)cc1 (centres undefined) | inactive: 24.5% | – |

— PubChem BioAssay AID624296 (National Center for Advancing Translational Sciences (NCATS), 2012)
